# Measurements published in the supplement of paper PMC8728848.
# This is one part of the list.
# Key:
# Test in all cases: glycan array binding signal (z-score within array); higher = stronger binding
# Conditions in all cases: glycan notation: IUPAC condensed, linker removed
# [1] = biological target: Fuc(a1-2)[Gal(a1-3)]Gal(b1-4)[Fuc(a1-3)]GlcNAc(b1-3)GalNAc
# How it was run: (§1)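 Glycan array data were curated from 3228 arrays in the Consortium for Functional Glycomics database and kept only where the protein sequence was available. Glycan names were converted to IUPAC-condensed notation, and columns mapping to the same glycan were averaged. The binding signal is a within-array Z-score, averaged across arrays of the same protein sequence at different concentrations or buffers and across linkers. Negative Z-scores can be read as non-binding.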
# [2] = biological target: Fuc(a1-2)[Gal(a1-4)]Gal(b1-4)GlcNAc
# How it was run: as §1
# [3] = biological target: Fuc(a1-2)[GalNAc(a1-3)]Gal
# How it was run: as §1
# [4] = biological target: Fuc(a1-2)[GalNAc(a1-3)]Gal(b1-3)GalNAc(a1-3)[Fuc(a1-2)]Gal(b1-4)GlcNAc
# How it was run: as §1
# [5] = biological target: Fuc(a1-2)[GalNAc(a1-3)]Gal(b1-3)GalNAc(b1-3)Gal(a1-4)Gal(b1-4)Glc
# How it was run: as §1
# [6] = biological target: Fuc(a1-2)[GalNAc(a1-3)]Gal(b1-3)GlcNAc
# How it was run: as §1
# [7] = biological target: Fuc(a1-2)[GalNAc(a1-3)]Gal(b1-3)GlcNAc(b1-2)Man(a1-3)[Fuc(a1-2)[GalNAc(a1-3)]Gal(b1-3)GlcNAc(b1-2)Man(a1-6)]Man(b1-4)GlcNAc(b1-4)GlcNAc
# How it was run: as §1
# [8] = biological target: Fuc(a1-2)[GalNAc(a1-3)]Gal(b1-3)GlcNAc(b1-2)Man(a1-3)[Fuc(a1-2)[GalNAc(a1-3)]Gal(b1-3)GlcNAc(b1-2)Man(a1-6)]Man(b1-4)GlcNAc(b1-4)[Fuc(a1-6)]GlcNAc
# How it was run: as §1
# [9] = biological target: Fuc(a1-2)[GalNAc(a1-3)]Gal(b1-3)GlcNAc(b1-3)GalNAc
# How it was run: as §1
# [10] = biological target: Fuc(a1-2)[GalNAc(a1-3)]Gal(b1-3)GlcNAc(b1-6)GalNAc
# How it was run: as §1
# [11] = biological target: Fuc(a1-2)[GalNAc(a1-3)]Gal(b1-4)Glc
# How it was run: as §1
# [12] = biological target: Fuc(a1-2)[GalNAc(a1-3)]Gal(b1-4)GlcNAc
# How it was run: as §1
# [13] = biological target: Fuc(a1-2)[GalNAc(a1-3)]Gal(b1-4)GlcNAc(b1-2)Man
# How it was run: as §1
# [14] = biological target: Fuc(a1-2)[GalNAc(a1-3)]Gal(b1-4)GlcNAc(b1-2)Man(a1-3)[Fuc(a1-2)[GalNAc(a1-3)]Gal(b1-4)GlcNAc(b1-2)Man(a1-6)]Man(b1-4)GlcNAc(b1-4)GlcNAc
# How it was run: as §1
# [15] = biological target: Fuc(a1-2)[GalNAc(a1-3)]Gal(b1-4)GlcNAc(b1-2)Man(a1-3)[Fuc(a1-2)[GalNAc(a1-3)]Gal(b1-4)GlcNAc(b1-2)Man(a1-6)]Man(b1-4)GlcNAc(b1-4)[Fuc(a1-6)]GlcNAc
# How it was run: as §1
# [16] = biological target: Fuc(a1-2)[GalNAc(a1-3)]Gal(b1-4)GlcNAc(b1-3)Gal(b1-4)GlcNAc
# How it was run: as §1
# [17] = biological target: Fuc(a1-2)[GalNAc(a1-3)]Gal(b1-4)GlcNAc(b1-3)Gal(b1-4)GlcNAc(b1-3)Gal(b1-4)GlcNAc
# How it was run: as §1
# [18] = biological target: Fuc(a1-2)[GalNAc(a1-3)]Gal(b1-4)GlcNAc(b1-3)GalNAc
# How it was run: as §1
# [19] = biological target: Fuc(a1-2)[GalNAc(a1-3)]Gal(b1-4)GlcNAc(b1-3)[Fuc(a1-2)[GalNAc(a1-3)]Gal(b1-4)GlcNAc(b1-6)]GalNAc
# How it was run: as §1
# [20] = biological target: Fuc(a1-2)[GalNAc(a1-3)]Gal(b1-4)GlcNAc(b1-6)GalNAc
# How it was run: as §1
# [21] = biological target: Fuc(a1-2)[GalNAc(a1-3)]Gal(b1-4)[Fuc(a1-3)]GlcNAc
# How it was run: as §1
# [22] = biological target: Fuc(a1-2)[GalNAc(a1-3)]Gal(b1-4)[Fuc(a1-3)]GlcNAc(b1-3)GalNAc
# How it was run: as §1
# [23] = biological target: Fuc(a1-2)[GalNAc(a1-4)]Gal(b1-4)GlcNAc
# How it was run: as §1
# [24] = biological target: Fuc(a1-2)[GalNAc(b1-3)]Gal
# How it was run: as §1
# [25] = biological target: Fuc(a1-3)GlcNAc
# How it was run: as §1
# [26] = biological target: Fuc(a1-3)[Gal(b1-4)]Glc6S
# How it was run: as §1
# [27] = biological target: Fuc(a1-3)[Gal(b1-4)]GlcNAc
# How it was run: as §1
# [28] = biological target: Fuc(a1-3)[Gal(b1-4)]GlcNAc(b1-2)Man
# How it was run: as §1
# [29] = biological target: Fuc(a1-3)[Gal(b1-4)]GlcNAc(b1-2)Man(a1-3)[Fuc(a1-3)[Gal(b1-4)]GlcNAc(b1-2)Man(a1-6)]Man(b1-4)GlcNAc(b1-4)GlcNAc
# How it was run: as §1
# [30] = biological target: Fuc(a1-3)[Gal(b1-4)]GlcNAc(b1-2)Man(a1-3)[Fuc(a1-3)[Gal(b1-4)]GlcNAc(b1-2)Man(a1-6)]Man(b1-4)GlcNAc(b1-4)[Fuc(a1-6)]GlcNAc
# How it was run: as §1
# [31] = biological target: Fuc(a1-3)[Gal(b1-4)]GlcNAc(b1-3)Gal(b1-3)[Fuc(a1-4)]GlcNAc
# How it was run: as §1
# [32] = biological target: Fuc(a1-3)[Gal(b1-4)]GlcNAc(b1-3)Gal(b1-4)[Fuc(a1-3)]GlcNAc
# How it was run: as §1
# [33] = biological target: Fuc(a1-3)[Gal(b1-4)]GlcNAc(b1-3)Gal(b1-4)[Fuc(a1-3)]GlcNAc(b1-3)Gal(b1-4)[Fuc(a1-3)]GlcNAc
# How it was run: as §1
# [34] = biological target: Fuc(a1-3)[Gal(b1-4)]GlcNAc(b1-3)GalNAc
# How it was run: as §1
# [35] = biological target: Fuc(a1-3)[Gal(b1-4)]GlcNAc(b1-6)GalNAc
# How it was run: as §1
# [36] = biological target: Fuc(a1-3)[Gal(b1-4)]GlcNAc(b1-6)[Gal(b1-3)GlcNAc(b1-3)]Gal(b1-4)Glc
# How it was run: as §1
# [37] = biological target: Fuc(a1-3)[Gal(b1-4)]GlcNAc6S
# How it was run: as §1
# [38] = biological target: Fuc(a1-3)[Gal3S(b1-4)]Glc
# How it was run: as §1
binder,measurement,setting,value
"Apa (Mycobacterium tuberculosis), Rv1860 (protein) MHQVDPNLTRRKGRLAALAIAAMASASLVTVAVPATANADPEPAPPVPTTAASPPSTAAAPPAPATPVAPPPPAAANTPNAQPGDPNAAPPPADPNAPPPPVIAPNAPQPVRIDNPVGGFSFALPAGWVESDAAHFDYGSALLSKTTGDPPFPGQPPPVANDTRIVLGRLDQKLYASAEATDSKAAARLGSDMGEFYMPYPGTRINQETVSLDANGVSGSASYYEVKFSDPSKPNGQIWTGVIGSPAANAPDAGPPQRWFVVWLGTANNPVDKGAAKALAESIRPLVAPPPAPAPAPAEPAPAPAPAGEVAPTPTTPTPQRTLPA",glycan array binding signal (z-score),[1],-0.007
same,glycan array binding signal (z-score),[2],0.43
same,glycan array binding signal (z-score),[3],-0.191
same,glycan array binding signal (z-score),[4],14.3
same,glycan array binding signal (z-score),[5],5.64
same,glycan array binding signal (z-score),[6],-0.103
same,glycan array binding signal (z-score),[7],-0.284
same,glycan array binding signal (z-score),[8],1.6
same,glycan array binding signal (z-score),[9],0.338
same,glycan array binding signal (z-score),[10],-0.091
same,glycan array binding signal (z-score),[11],-0.137
same,glycan array binding signal (z-score),[12],-0.327
same,glycan array binding signal (z-score),[13],0.136
same,glycan array binding signal (z-score),[14],0.378
same,glycan array binding signal (z-score),[15],0.127
same,glycan array binding signal (z-score),[16],-0.657
same,glycan array binding signal (z-score),[17],-0.076
same,glycan array binding signal (z-score),[18],0.239
same,glycan array binding signal (z-score),[19],0.394
same,glycan array binding signal (z-score),[20],-0.315
same,glycan array binding signal (z-score),[21],0.05
same,glycan array binding signal (z-score),[22],0.258
same,glycan array binding signal (z-score),[23],-0.306
same,glycan array binding signal (z-score),[24],-0.481
same,glycan array binding signal (z-score),[25],-0.29
same,glycan array binding signal (z-score),[26],0.898
same,glycan array binding signal (z-score),[27],-0.056
same,glycan array binding signal (z-score),[28],0.96
same,glycan array binding signal (z-score),[29],-0.521
same,glycan array binding signal (z-score),[30],-0.233
same,glycan array binding signal (z-score),[31],-0.154
same,glycan array binding signal (z-score),[32],0.272
same,glycan array binding signal (z-score),[33],-0.421
same,glycan array binding signal (z-score),[34],0.093
same,glycan array binding signal (z-score),[35],0.876
same,glycan array binding signal (z-score),[36],-0.148
same,glycan array binding signal (z-score),[37],1.94
same,glycan array binding signal (z-score),[38],0.062
